Patent US20260216175A1, “COMPLEMENT INHIBITION” (Apellis Pharmaceuticals, Inc., priority 2023, published 2026)

biological target: C3 convertase (CVF:Bb) (Homo sapiens, UniProt P00751); assay: biochemical

Going from `COc1cc(C)c2[nH]ccc2c1CN1CCN(CC(F)(F)F)CCC1c1ccc(-c2nn[nH]n2)cc1` (centres unmarked) to `COc1cc(C)c2[nH]ccc2c1CN1CCN(CCC(F)(F)F)CC1c1ccc(C(N)=O)c(C#N)c1` (centres unmarked), the IC50 rises from 770 nM to 23400 nM (30-fold).

First: COc1cc(C)c2[nH]ccc2c1CN1C[C@@H]2CC[C@H](C)N2C[C@H]1c1ccc(C(=O)O)cc1
Second: COc1cc(C)c2[nH]ccc2c1CN1C[C@H]2CCCN2C[C@H]1c1ccc(C(=O)O)cc1
The IC50 of the first is 5-fold lower: 760 nM for the first, 3820 nM for the second. The first is the more potent here.

Compared with `COc1cc(C)c2[nH]ccc2c1CN1CCN(CC(F)F)C[C@@H]1c1ccc(C(=O)O)c(OC2COC2)c1`, `COc1cc(C)c2[nH]ccc2c1CN1CCN(CC(F)F)C[C@H]1c1ccc(C(=O)O)c(NC2COC2)c1` is 26-fold lower in IC50: 7120 nM for the first, 273 nM for the second. The second is the more potent here.

Compared with `COc1cc(C)c2[nH]ccc2c1CN1CCN(CC(F)F)C[C@H]1c1ccc(C(=O)O)c2c1OCCO2`, `COc1cc(C)c2[nH]ccc2c1CN1CCN(CC(F)F)C[C@@H]1c1ccc(C(=O)O)c2c1OCCO2` is 280-fold higher in IC50: 343 nM for the first, 96900 nM for the second. The first is the more potent here.

Going from `COc1cc(C)c2[nH]ccc2c1CN1CCN(CCC(F)(F)F)C[C@@H]1c1ccc(C(=O)O)c(N(C)C)c1` to `COc1cc(C)c2[nH]ccc2c1CN1CCN(CCC(F)(F)F)C[C@H]1c1ccc(C(=O)O)c(N(C)C)c1`, the IC50 falls from 29100 nM to 637 nM (46-fold). The second is the more potent here.

Compared with `COc1cc(C)c2[nH]ccc2c1CN1CCN(CC(F)F)C[C@@H]1c1ccc(C(=O)O)c(NC2COC2)c1`, `COc1cc([C@@H]2CN(CC(F)F)CCN2Cc2c(OC)cc(C)c3[nH]ccc23)ccc1C(=O)O` is 4.9-fold lower in IC50: 5580 nM for the first, 1130 nM for the second. The second is the more potent here.

Compared with `COc1cc(C)c2[nH]ccc2c1CN1CCN(CCC(F)(F)F)C[C@@H]1c1ccc(C(=O)O)c(Cl)c1`, `COc1cc(C)c2[nH]ccc2c1CN1CCN(CCC(F)(F)F)C[C@H]1c1ccc(C(=O)O)c(Cl)c1` is 70-fold lower in IC50: 45400 nM for the first, 645 nM for the second. The second is the more potent here.

First: COc1cc(C)c2[nH]ccc2c1CN1CCN(CC(F)F)CC1c1ccc(C(=O)O)c2[nH]ccc12 (centres unmarked)
Second: COc1cc(C)c2[nH]ccc2c1CN1CCN(CC(F)F)CC1c1ccc(C(=O)O)c(N[C@@H](C)C(F)(F)F)c1 (some centres unmarked)
The IC50 of the first is 2.8-fold lower: 340 nM for the first, 940 nM for the second. The first is the more potent here.

`COc1cc(C)c2[nH]ccc2c1CN1C[C@H]2CCCN2C[C@@H]1c1ccc(C(=O)O)cc1` gave an IC50 of 15600 nM.
